Assay results taken from publication PMC12040169 (PLOS Biology, 2025).
Some of the results follow.

Tested on: T1, C. trachomatis L2/434/Bu expressing GFP (CTL2-GFP)
T1 construct: L2/434/Bu GFP intracellular growth in HeLa cells
Parameters: species or system HeLa; C. trachomatis total inclusion area by high-content imaging, normalised to DMSO
Details: total inclusion area; 28.5 h, 10 µM; inhibitor
Summary of the method: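 Bulk GFP and resorufin signals were read first. Wells were then fixed, stained with Hoechst and imaged to detect GFP inclusions and host nuclei. MICs followed the previously described calculation.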

SMILES	% of control remaining
Cc1nn(-c2ccccc2)c(Cl)c1CN1C(=O)NC2(CCCC2)C1=O [CBK305070]	53.285
FC(F)(F)c1ccnc(OC2CCNCC2)n1 [CBK113294]	100.625
O=C(c1cccnc1)N1CCN(c2ncccn2)CC1 [CBK144516]	83.3598
Cc1c(Cl)cccc1NC(=O)CSc1nccn1C [CBK270297]	90.8852
Cc1c(S(=O)(=O)N2CCC(N)C2)sc2ccc(Cl)cc12 (stereo not shown) [CBK164970]	56.0755
Cc1ccc2c(c1)CC(=O)NC21CCN(CCc2noc3ccccc23)CC1 [CBK081072]	90.5267
CCCc1ccc(S(=O)(=O)N2CCOC(c3cnn(CC)c3)C2)cc1 (stereo not shown) [CBK306169]	29.665
O=C(c1ccc(F)cc1F)N1CCC(O)(c2ccccn2)CC1 [CBK283671]	67.2484
Cn1cncc1C(=O)N1CCc2ccccc21 [CBK200412]	87.3928
Cc1c(OCc2ccccc2)ccc2c1OC1(CCN(C(=O)c3ccsc3)CC1)CC2=O [CBK156445]	85.8366
Cc1ccccc1Sc1cccc(C(F)(F)F)n1 [CBK115243]	90.4612
c1cc2[nH]ccc2c(N2CCNCC2)n1 [CBK051673C]	87.0719
CCN(CC)C(=O)c1[nH]c2ccccc2c1NS(=O)(=O)c1ccc(C(F)(F)F)cc1[N+](=O)[O-] [CBK050109]	85.4873
COCCNC(=O)C(C)SCc1ccccc1 (stereo not shown) [CBK028889]	56.0356
c1cnc2c(c1)cc([C@H]1CCCO1)n2CCN1CCCC1 [CBK282289]	89.302
Cc1ccc(NS(=O)(=O)c2cc(C(=O)N3CCN(Cc4ccc5c(c4)OCO5)CC3)ccc2C)cc1 [CBK268521]	80.0687
O=S(=O)(c1ccc2c(c1)nc1n2CCC1)N1CCOCC1 [CBK019200]	49.8975
Nc1cccc(-c2nc(-c3cccnc3)cnc2N)c1 [CBK063906]	125.823
O=C(CSc1ccc(-c2ccncc2)nn1)Nc1ccc(F)cc1 [CBK287297]	105.185
COc1ccc(C2=NN(c3ccc([N+](=O)[O-])cc3)C(=O)/C2=C\NCCN2CCOCC2)cc1 [CBK264563]	100.157
COc1ccccc1NC(=O)c1c(NC(=O)Cc2ccccc2)sc2c1CCC(C(C)(C)C)C2 (stereo not shown) [CBK264102]	79.9135
CC1CCc2c(sc(NC(=O)c3cccs3)c2C(=O)N2CCOCC2)C1 (stereo not shown) [CBK307101]	47.4038
CCN(CC)CCCNC(=O)N(CCC#N)C1CCCCC1 [CBK156377]	61.6693
Cc1cccc2c3c([nH]c12)C1(CCCN(CCc2ccc([N+](=O)[O-])cc2)C1)NCC3 (stereo not shown) [CBK039558]	69.6256
COCC(=O)N1CCc2sccc2C1c1ccc(NCc2ccc(F)cc2F)cc1 (stereo not shown) [CBK286460]	107.984
O=C(Nc1ccccc1Oc1ccc(F)cc1)c1ccc(Cn2cncn2)cc1 [CBK285587]	102.987

SMILES	% of control remaining
O=C(CC1CCN(C(=O)CC2CCCCC2)CC1)NCc1ccccc1N1CCCC1 [CBK285962]	126.999
O=C1Nc2cc(Cl)ccc2C(=O)N2CC[C@H](NC(=O)N3CCOCC3)[C@@H]12 [CBK289340]	112.179
COc1cccc(NC(=S)NCCCN2CCOCC2)c1 [CBK264548]	79.8653
CN1CCN(CCOC(=O)N2CCCC(C(F)(F)F)C2)CC1 (stereo not shown) [CBK200207]	101.233
C=CCNC(=O)N[C@H]1[C@H](O)[C@@H](N2CCN(c3ccccc3OC)CC2)[C@@H]2OC[C@H]1O2 [CBK288818]	101.388
Fc1ccc(-c2nccnc2OCc2ccccn2)cc1 [CBK106894]	95.4718
O=c1[nH]c2ncc(-c3ccncc3)nc2n1C1CCCC1 [CBK064972]	114.112
C[C@@H]1CN(C(=O)c2nccc3ccccc23)C[C@H](C)O1 [CBK200233]	107.174
O=C(NC(c1ccc2ccccc2n1)c1cccs1)C1CCNCC1 (stereo not shown) [CBK148331]	91.9411
O=C(CN1CCC(c2ccc(F)cc2)CC1)N1CCCCC1 [CBK283640]	80.0686
COc1ccc(C(=O)c2sc3nc(C)cc(C)c3c2N)cc1 [CBK115362]	104.617
NC(=O)CN1CCC(Oc2nccnc2OCc2cccnc2)CC1 [CBK083165]	55.7043
Cc1cc(-c2nc3ncccc3o2)ccc1NC(=S)NC(=O)c1cc2ccccc2o1 [CBK268922]	86.7834
COc1ccc(-c2cc(C(=O)Nc3cnc4ccccc4c3)cnc2-c2cccc(C)c2)cn1 [CBK037425]	88.3052
CNCC1CCN(S(=O)(=O)c2ccc(OCc3ncnn3C)cc2)CC1 [CBK304309C]	76.7004
O=C1COc2ccccc2C/C=C/C[C@H]2CN(C(=O)CN3CCCCCC3=O)CC[C@H]2N1 [CBK292116]	95.654
Cc1cc(C)nc(SCc2csc(N)n2)n1 [CBK019838]	74.8065
O=C(CCNC(=O)c1ccc(Br)o1)NCc1ccccc1Cl [CBK294454]	92.8998
CSCCOc1nc2ccccc2nc1N1CCCC1 [CBK115770]	107.532
Cc1nc2c(OCC(=O)C(C)(C)C)cccn2c1N(C)C(=O)C1CCCCC1 [CBK147145]	99.9216
CC(=O)N1CCC(N2C[C@H](O)C[C@H]2c2nc(C3CC3)no2)CC1 [CBK288845]	107.091
CCOc1ccccc1C(=O)N1CCC(Cc2ccccc2-c2ccccc2)(C(N)=O)CC1 [CBK285910]	117.241
C[C@@H]1CN(Cc2ccccc2)C[C@H](C)N1 [CBK001569]	98.0043
COc1cccc(C(=O)Nc2nnc(-c3ccco3)o2)c1 [CBK287421]	73.7305
Cc1sc(-c2c(F)cccc2F)nc1O [CBK067729]	52.8178
Cc1ccccc1-c1nnc2n1CCCCC2 [CBK200076A]	106.95
